Measured values taken from PubChem BioAssay AID624417 (National Center for Advancing Translational Sciences (NCATS), 2012).
About 6,400 (1.6%) of roughly 410,000 compounds were called active. The inconclusive results got no clear call from the source; some entries with a clear call stand among them for comparison. The call rests on the fitted dose curve; in most records, active means well fitted inhibition curve with a large enough effect; inconclusive means small, poorly fitted or top-dose-only effect; inactive means no such curve, though single readings can be large or run the other way. Potencies beside an inconclusive call are fits to weak or partial responses and may not hold up.

molecular target: Glucagon-like peptide 1 receptor (Homo sapiens) (UniProt P43220); assay: qHTS of GLP-1 Receptor Inverse Agonists (Inhibition Mode); details: HEK293 GLP-1R CRE-luciferase, luminescence, 24 h, GLP-1R form is constitutively active; series mostly up to 38.3 µM; further: nearly all actives have a fitted effect of over 55% in size
Sequence of UniProt P43220 (P43220 whole entry, looked up): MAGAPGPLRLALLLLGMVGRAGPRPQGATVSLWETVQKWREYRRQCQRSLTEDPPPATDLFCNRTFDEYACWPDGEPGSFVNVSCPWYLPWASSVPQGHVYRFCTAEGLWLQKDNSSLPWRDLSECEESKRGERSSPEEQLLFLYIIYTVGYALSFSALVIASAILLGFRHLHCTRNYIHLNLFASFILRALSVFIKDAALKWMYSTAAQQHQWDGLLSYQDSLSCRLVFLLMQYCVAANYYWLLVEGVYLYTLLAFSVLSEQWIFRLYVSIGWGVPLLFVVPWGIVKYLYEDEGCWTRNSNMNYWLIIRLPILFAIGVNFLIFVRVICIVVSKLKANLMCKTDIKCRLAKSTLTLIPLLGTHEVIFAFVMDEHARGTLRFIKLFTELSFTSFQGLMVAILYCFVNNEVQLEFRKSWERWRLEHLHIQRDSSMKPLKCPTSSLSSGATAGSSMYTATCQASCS
Method in brief: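 Constitutively active GLP-1R drives a cAMP-responsive luciferase in stably transfected HEK293 cells; test compounds are added after overnight (12 h) attachment and left 24 hr, and signal loss in luminescence marks inhibition.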
Potency means the concentration at half of the fitted maximal effect; tags describe the fitted curve by direction and shape.

Potency, inactive:
CCCCCC(=O)NC(Nc1ccc(S(N)(=O)=O)cc1)C(Cl)(Cl)Cl (configuration not stated)
O=C(NC(=S)Nc1ccc(S(=O)(=O)N2CCCCC2)cc1)c1ccccc1
CCOc1ccc(CCNC(=O)Cn2nc(CC)n3c(cc4ccccc43)c2=O)cc1
CCOc1ccccc1OCCCn1c(-c2ccc(Cl)cc2)nc2ccccc2c1=O
O=C(NCc1ccc(Cl)cc1)C(=O)Nc1nccs1
COc1ccc(NC(=O)C2(C)CCN2Cc2cccc(OC)c2OC)cc1OC (configuration not stated)
CCOC(=O)C1CCN(C(=O)c2ccc(-n3ccc4ccccc43)s2)CC1
COc1ccc(S(=O)(=O)n2nc(OC(=O)c3ccncc3)cc2N)cc1
CC(=O)c1cccc(NC(=O)C2CCN(S(=O)(=O)c3ccc4c(c3)oc(=O)n4C)CC2)c1
CCc1ccc2nc(SCC(=O)Nc3nnc(C)s3)c(C)cc2c1

Potency, inconclusive:
Cc1cccc2c1NC(=O)C2(c1ccc(O)cc1)c1ccc(O)cc1 7.94 µM [inhibitor, partial curve, poor fit]
C=CCn1c(CNC(=O)c2cccs2)nnc1SCc1ccc(Cl)cc1Cl 12.6 µM [inhibitor, single point]
COc1ccc(-c2c3c(=O)n(C)c(=O)n(C)c3c3n2-c2ccccc2NC3c2ccco2)cc1 (configuration not stated) 22.4 µM [inhibitor, single point]
CCOc1cc(CN2CCc3c([nH]c4ccccc34)C2)ccc1OC 22.4 µM [inhibitor, single point]
Cc1ccc(C(=O)OCC(=O)N(C)c2ccccc2)cc1C 28.2 µM [inhibitor, single point]
COc1ccc(NC(=O)CNc2cccc(S(=O)(=O)N3CCCCCC3)c2)c([N+](=O)[O-])c1 28.2 µM [inhibitor, single point]
COCCCNC(=S)N/N=C/c1ccc(OC)c(Br)c1 28.2 µM [inhibitor, single point]
O=C(Nc1cccc(C(F)(F)F)c1)Nc1ccon1 28.2 µM [inhibitor, partial curve, poor fit]
Cc1ccc(Cl)cc1N1CCN(C(=O)c2ccc3c(c2)N(Cc2ccc(F)cc2)CCS3)CC1 31.6 µM [inhibitor, single point]
CC(C)(C)Cc1c(C2CCCCC2)nc2ccc(Br)cn12 11.2 µM [inhibitor, partial curve]
Cc1ccc(S(=O)(=O)N2C[C@@H]3[C@H]4CC[C@H](C4)[C@@H]3[C@@H](C)[C@@H]2C2CCCCC2=O)cc1 (some centres not stated) 12.6 µM [inhibitor, single point]
Cc1cccc(NC(=O)N2CC(=O)Nc3sc4c(c3C2c2ccccc2)CCCC4)c1C (configuration not stated) 3.55 µM [inhibitor, single point]
CC(C)OCCCNC1=C(Cl)C(=O)c2ccccc2C1=O 28.2 µM [inhibitor, single point]
O=[N+]([O-])c1cc(S(=O)(=O)N2CCCCCC2)ccc1Cl 31.6 µM [inhibitor, partial curve, poor fit]
CCN1c2ccccc2-c2nc3ccccc3n2C1c1cccs1 (configuration not stated) 17.8 µM [inhibitor, single point]
CC(C)c1ccc(NC(=O)COc2nnc(-c3cccs3)c(-c3cccs3)n2)cc1 5.01 µM [inhibitor, full curve, poor fit]
Cc1cccc(C(=O)NCCc2ccccc2)c1 28.2 µM [inhibitor, single point]
CCN1C(=O)N[C@@H](CCc2ccccc2)C(C(=O)OC)=C1C 10 µM [inhibitor, partial curve, poor fit]
COc1cc(OC)cc(C(=O)NCC(=O)Nc2ccc(OC)c(Cl)c2)c1 28.2 µM [inhibitor, single point]
O=C(CSCc1ccccc1Cl)N1CCN(c2ccc(Cl)cc2)CC1 28.2 µM [inhibitor, single point]
Cc1ccc(/C=N/Nc2cccc(C(=O)O)c2)s1 2 µM [inhibitor, full curve, poor fit]
NCc1ccccc1COc1ccccc1 11.2 µM [inhibitor, partial curve, poor fit]
COCCCNC(=O)c1cc(C(=O)c2c(-c3c(Cl)cccc3Cl)noc2C)c[nH]1 11.2 µM [inhibitor, partial curve, poor fit]
CCOC(=O)CSCC(=O)N1CCC(Cc2ccccc2)CC1 28.2 µM [inhibitor, single point]
COc1cc2c(cc1NC(=O)CSc1nc3ccccc3[nH]1)oc1ccccc12 1.26 µM [inhibitor, partial curve, poor fit]
CCOC(=O)C1(CCOc2ccccc2)CCN(C(=O)c2ccc(-n3cccn3)cc2)CC1 10 µM [inhibitor, partial curve, poor fit]
CC1=CC(C)(C)N2C(=O)C3(C(C#N)=C(N)Oc4cc(C)oc(=O)c43)c3cccc1c32 (configuration not stated) 7.94 µM [inhibitor, partial curve]
CCOc1ccccc1NC(=O)c1cc(S(=O)(=O)N2CCN(CC)CC2)ccc1Cl 10 µM [inhibitor, partial curve, poor fit]
CCOC(=O)C1(CCOc2ccccc2)CCN(Cc2cc(OC)c(O)c(OC)c2)CC1 28.2 µM [inhibitor, single point]

Potency, active:
CN(C)CCNC(=O)c1cccc2nc3cccc(F)c3nc12 6.31 µM
CCOC(=O)c1cccc(NC(=O)CCn2c(-c3ccc(F)cc3)cc(C(=O)OCC)c2C)c1 10 µM
O=C(O)c1ccc(Nc2nc3c(s2)CCCC3)cc1 1.78 µM
